Reference: the supplement of paper PMC11417369
± gives the standard deviation of the averaged measurements. The list shows a part of the results.

test system: PfAP2-G AP2 domain (GST-tagged); test: gcPBM binding intensity (ln(normalized median fluorescence intensity)); higher = stronger DNA binding
In short: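 Each value is the highest Masliner-normalised natural-log median intensity across replicate spots of either orientation of a probe. The probes were primer-extended double-stranded 36-bp intergenic genomic sequences on an Agilent 4 × 180k array, alongside negative controls, exposed for 1 h to GST-tagged P. falciparum DNA-binding domains expressed in E. coli. Bound protein was picked up with Alexa488 anti-GST antibody and scanned at 488 nm.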

Sequence	gcPBM binding intensity (ln)
AAATAAATCTATAATACACACAAAAATATAAAATGC [CACACA_site7700]	10.04 ± 0.021
CTATTATTTTTAAATTGTACTATAACAAAATGTATA [XGTACX_site3916]	10.8 ± 0.59
ATATATATGTTTTATAGTACACACATAAATGGACAT [XGTACX_site4538]	11.5 ± 0.97
TTAAGAAATAACAATGCACACATTTAGGTCTTTTAT [CACACA_site3285]	9.88 ± 0.14
ATAACTTGTATATATACACACACACCCTTTCTTTTT [CACACA_site8600]	10.2 ± 0.11
TATATTATATTATACATACACACCCATATAATATGT [CACACA_site869]	10.2 ± 0.11
TTAGATATGTGTAAGGGTACAAAATACTTTACATTT [XGTACX_site8204]	11 ± 0.66
CTTCAATATATTCTTACACACTTAAAAAAAAAAATA [CACACA_site4287]	9.97 ± 0.47
GTGTTTTTATTATTTTGTACACATATATTTAATATT [XGTACX_site2109]	11.5 ± 0.87
TTTTTTTTGTAATACGCATGCTAAAAATATTTATAA [TGCATGCA_site656]	10.4 ± 0.53
CGTATTTATAGAATTACACACCATATTGTAATTATT [CACACA_site7722]	9.985 ± 0.064
TTTTCGATGTTGGTAGGAAGTTTGGTACACGTAGTA [TGCATGCA_negctrl_site145]	11.1 ± 0.8
ATTTAAATAAGATATACACACAAGTAGAAGACTATG [CACACA_site806]	10.2 ± 0.13
TTATATTATTCGTGTGTGCACGATATTTCATAATTG [GTGCAC_site9767]	10.3 ± 0.25
CAAAAAATTCAACACACACACACACCGATAAATAAA [CACACA_site8330]	10.1 ± 0.16
AAAATTCATATATACACACACGCACATATATATATA [CACACA_site90]	10.4 ± 0.52
GAATGTCTAATTTTGATGCACACTTTTGTGCAATTA [CACACA_site2902]	10.2 ± 0.24
AAAACTATTTGTAAAAGTACATAATAAATAAATAAA [XGTACX_site7922]	11.2 ± 0.71
ATAATGTTTTATAATACACACATTATGTATATAAAT [CACACA_site4077]	10.03 ± 0.078
TTGTCCCTATAAGGGGAACACACATAAATGAATATA [CACACA_site8250]	11 ± 0.63
TTTTTATTGTTAATTTTAATTTTTTTTTTTTAATGC [CACACA_negctrl_site162]	9.525 ± 0.007
TTGTAACCTATGCACGCACACAAGAAAAAAACAAAA [CACACA_site3775]	10.6 ± 0.49
TATATATATATATATTGTACACATTGTGTTTAAATA [XGTACX_site5104]	11.4 ± 0.91

Sequence	gcPBM binding intensity (ln)
AATAGAATGTAATATACACACATATATTTCTCTTTT [CACACA_site2630]	9.46 ± 0.54
TTTCCTTATAAAAATACACACAAACTTTAATTAAAA [CACACA_site7710]	10.06 ± 0.078
TTTCTTTTTAAATGCTGTACAAAGGGTGACGTTAAA [XGTACX_site4724]	11.1 ± 0.7
TATTACACATATTATACACACATATATTATAGATAT [CACACA_site6839]	10.07 ± 0.085
TATTCCAAATTTACTAGTACATAATCCATCCGATAA [XGTACX_site1558]	11.1 ± 0.73
CTTATATAATTCGATAGTACATATTTTTATATATAT [XGTACX_site4045]	11 ± 0.7
ATTTTTTATATTTAGTGTACATGTTTTAATTTATAA [XGTACX_site7512]	11.5 ± 0.93
ATAACTTTATTCAGTTTGCACTTTTATAACAAAAGA	10.2 ± 0.23
ATTGAATATGTAAATGCACACCAAAAAAAAAAAAAA [CACACA_site9189]	9.94 ± 0.41
TTTTTCCTATTTTTAGTGCACATATAAATAAATAAA [GTGCAC_site9821]	10.5 ± 0.45
TTTTCTTTTTTTTTTGTGCACATAATATATAATTAT	10.6 ± 0.46
ATATTTTTTAGTAAGACGAAATAAATAAATCTTTAT [CACACA_negctrl_site1778]	9.81 ± 0.18
TATATATATATAAGCACACAAACAAAAAAAATTATA [CACACA_site3897]	10.3 ± 0.35
ATCCAAACAAATAAAACATGCATAATATATATATAT [TGCATGCA_site766]	9.83 ± 0.27
GTAATATATACAAAATGTACAAAACAATAACATGAT [XGTACX_site8575]	10.7 ± 0.39
TTTTTTTTTAATATTTGTACACAACATGAAACATTT [XGTACX_site473]	11.2 ± 0.78
CTCAAATAATTTTTTACACACATTATTTGAAATAAG [CACACA_site1290]	9.87 ± 0.028
ATGCTTTTATAAATAATTAAAAAAAAAAAAAAAAAA [TGCATGCA_negctrl_site533]	9.48 ± 0.57
TTTTATATTCCACAAAAAATTATATAATAATAGAAC [CACACA_negctrl_site1741]	9.955 ± 0.092
TAAAATATTACGTGTACACATAAATAAAAATAAAAA [CACACA_site5066]	11.8 ± 0.92
AAGATTTGAAAAAATACACACAATAAAAAAATAAAA [CACACA_site3281]	9.995 ± 0.064
TATATATATATGTGTATACACACCTGATAAAGGTAT [CACACA_site2653]	10.1 ± 0.12
AATAAATAAAAAACATGTACAAATATAATATAGCAT [XGTACX_site6429]	10.9 ± 0.58

Sequence	gcPBM binding intensity (ln)
ATGCACTCATTGTGCACACGCATATTACGAAAAGAA [CACACA_site2638]	10.5 ± 0.4
AAAAAAAAAAAAAACACACACACACCCATACAAAAT [CACACA_site1446]	10.2 ± 0.31
TAATTGTACGCCAATACACACAGAATTATAATGTAG [CACACA_site6201]	11.5 ± 1
TATACATATGAAAATACACACATACATACCTATATA [CACACA_site6888]	9.87 ± 0.14
TATTTAACACCTTATACACACTTTCTTCCTTTTTTA [CACACA_site4590]	10.01 ± 0.035
AAATTTATATTCATTTGTACGTAATTTAAATTATAC [XGTACX_site5870]	11.6 ± 0.94
TTTTATGTAATTATTTGTACATATGCCTCTTAAACT [XGTACX_site748]	10.9 ± 0.48
ACATAAATAATAAAAACACACATATGTACATATATA [CACACA_site1913]	11.3 ± 0.79
GATATTGAGAAAGGGTGTACAAGATATTATACTATA [XGTACX_site3598]	11.3 ± 0.77
AATAGAAAAAAATAAGTGCATTTTGGTATTCATCAT [GTGCAC_site9614]	10.06 ± 0.042
TACTAGCAAATACATACACACACACCCATATACATA [CACACA_site9163]	10.2 ± 0.23
AAAAAAAAAAAGCACACACACATATGTGTATTTATA [CACACA_site6578]	10.18 ± 0.028
ACAAAATATACAAAATGTACAAAATTTACAAAATGT [XGTACX_site3544]	10.5 ± 0.32
TTTTTCTCTCTCTTATTATACAACAACAAAAAAAAA [GTGCAC_negctrl_site178]	10.2 ± 0.57
AGAAATATATATATATATATATGTGACAATATTTGT [TGCATGCA_negctrl_site282]	10.2 ± 0.15
TTTTTTTATTTTATTTTATTATCTTATGTATCACAA [CACACA_negctrl_site1755]	9.825 ± 0.064
ACAAAAAGGTAATTTACACACTGCATATAGGAATAA [CACACA_site2929]	10.05 ± 0.021
TAATAAGTAAAAAAATGTACCCGTTAGGTTTAATAA [XGTACX_site638]	11.3 ± 0.88
AAAATAATATTTAATACACACACCAGTTCTGCAAAT [CACACA_site3736]	10.1
ATGTATGTATATACTTGTACATATTCATATTAGTAT [XGTACX_site1118]	10.9 ± 0.52
AATGTAGCATTTTATCGTACACTTAATACAAAAAAG [XGTACX_site6214]	11.3 ± 0.9
TTTGTTCATATTATTGTGCACTTAAACGTAACAAAA [GTGCAC_site9505]	10.6 ± 0.51
TTTATATTCTTAAGTGTGCACTATATATATATATAT [GTGCAC_site9719]	10.5 ± 0.47

Sequence	gcPBM binding intensity (ln)
ACCCTATATGTAACTACACACCGCATATTGTTTACT [CACACA_site3071]	10.26 ± 0.028
TGAAATTTTTATACATGTACAAAATTAAATATAACA [XGTACX_site7324]	10.8 ± 0.49
CAATTACAAAAGAAATGTACTCGTAATAAATAAATA [XGTACX_site1126]	11.5 ± 0.86
ATATTACACATATATGCACACATTGTAGTTATTTAT [CACACA_site8843]	10.09 ± 0.021
TATAATAATAATAATAGTACGTATTATTAAAAAACT [XGTACX_site10]	11.1 ± 0.67
TTATTATGCTGAGTACGTACTTATATAAGAATAGCA [XGTACX_site2955]	11.8 ± 1
TAAGTTCACAAAAAAAAAAAAAAATAAAGAAATAAA [CACACA_negctrl_site825]	9.69 ± 0.16
AAATTATTTCCGTGTACACATAAATATATATTTTAT [CACACA_site5121]	11.8 ± 0.83
TATCATGTCTGTATTTCACACACGGATAATCATTTA [CACACA_site920]	10.1 ± 0.14
AGAAAATTAAAAAGAACACACAAATATATATAGAAT [CACACA_site3592]	10.08 ± 0.071
ATTTATATGCACCATTGTACGTTTTATAAAGTTTGG [XGTACX_site3755]	11.4 ± 0.8
ATACATATATACATACGTACTTATATACATATGTGC [XGTACX_site5268]	10.9 ± 0.42
TATTCTATATTTCTATTTAGAAAACATCCCAGTGTG [GTGCAC_negctrl_site184]	9.9 ± 0.014
ATGTATATAATAAGAACACACATATATTTAATTTAA [CACACA_site2941]	9.91 ± 0.12
AAAAATAAAATATATACATGCATATACATATTATAT [TGCATGCA_site668]	9.69 ± 0.25
TGTTATATTTAATATAGTACATATTATTTTATATAT [XGTACX_site70]	10.9 ± 0.73
TAATTAAATAAAAAAACACACACATATATACATATA [CACACA_site9141]	9.92 ± 0.042
TCTATTAATTAATATACACACATTAGATATAAATAT [CACACA_site7241]	9.945 ± 0.092
ACACATATATAAATATGTACATATATATATATACAT [XGTACX_site1595]	11.2 ± 0.76
ATGTGTATATATTATTGTACATATATATATATATAT [XGTACX_site4627]	11.2 ± 0.82
